From PubChem BioAssay (NCI)
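Growth conditions: 96-well plates. Treatment: test compound, 48 hours, 5 concentrations. Analysis: linear interpolation between bracketing concentrations; unreached endpoints set to highest concentration. At the GI50, growth is halved. Definition used: TGI = concentration required for complete inhibition of growth.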

Test system: NCI-H322M lung
Assay: NCI anticancer screen, dose series, 48 h

## COc1ccc(C(=O)/C=C/c2cc3c(cc2Br)OCO3)cc1S(N)(=O)=O
  GI50: 3.8 µM
  TGI: 18.7 µM

## CC(C)N=C([Se])NC(=O)c1cccs1
  GI50: 2.96 µM
  TGI: 11.4 µM

## c1n[nH]cc1-c1nc2ccc3[nH]ncc3c2c2c1CC1(CC2)COC1
  GI50: 19.9 µM
  TGI: 59.8 µM

## CN1CCN(c2ccc3c(c2)nc(NNC(=O)c2cnccn2)c2cccn23)CC1
  GI50: 0.165 µM
  TGI: 8.13 µM

## O=C(CSc1nnc(-c2ccc3nc(-c4ccc(Cl)cc4)[nH]c3c2)o1)Nc1ccc(Cl)cc1
  GI50: 1.92 µM
  TGI: 4.84 µM

## CC(=O)Nc1ccc(-n2cnc3cc(-c4ccc(O)cc4)ccc32)cc1F
  GI50: 6.02 µM
  TGI: > 100 µM
